# Measured values reported in PubChem BioAssay AID743279 (National Center for Advancing Translational Sciences (NCATS), 2014).
# About 17,000 (4.7%) of roughly 360,000 compounds were called active. The inconclusive results got no clear call from the source; some entries with a clear call stand among them for comparison. Rule as the data show it: active = activity change below about -50%; inconclusive = mostly about -30% to -49%; inactive = weaker than that.
# Test: qHTS for Inhibitors of Inflammasome Signaling: IL-1-beta AlphaLISA Primary Screen
# Conditions: THP-1 LPS/ATP IL-1B secretion, 16 h; at 57.5 µM, active compounds read low
# How it was run: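 Secreted IL-1B measured by AlphaLISA bead assay after 16 h compound exposure of THP-1 cells; compounds (final up to 57.5 uM) added 1 h before LPS (250 ng/mL) and ATP (1.25 mM) stimulation; lower signal means less secretion.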
# % is scaled to controls: 0 for no effect and ±100 for the full control effect.
row,Structure (SMILES),activity change
1,Cc1cc(C)cc(NC(=O)c2ccc(CSc3nnc(C)s3)cc2)c1,inconclusive: -41.8%
2,Cc1cc(C)c(NC(=O)CN(C)CC(=O)Nc2cccc(S(=O)(=O)N(C)c3ccccc3)c2)c(C)c1,inconclusive: -34.1%
3,CCn1c(C)cc(C(=O)CSc2nnnn2C2CCCC2)c1C,inconclusive: -31%
4,Cc1ccc(C)c(CC(=O)N2CCCCC2c2cc(C(=O)Nc3ccc(F)c(Cl)c3)no2)c1 (stereo not given),inactive: -15.8%
5,COC(=O)c1ccc(Nc2nnc(-c3ccc(C)c(S(=O)(=O)NCC4CCCO4)c3)c3ccccc23)cc1 (stereo not given),active: -63.1%
6,COc1ccc(OC)c(C(=O)Nc2c(O)ccc3ccccc23)c1,inconclusive: -42.2%
7,Cc1cc2nc(N=C(N)N)nc(C)c2cc1C,active: -78.4%
8,CC(Sc1nnc(COc2ccc([N+](=O)[O-])cc2)n1-c1ccccc1)C(=O)O (stereo not given),inconclusive: -35.5%
9,O=C(NCCCCCCNC(=O)c1cccs1)c1cccs1,inactive: 99.2%
10,CCCOc1cccc(-c2cc(C(=O)N/N=C/c3ccccn3)c3ccccc3n2)c1,active: -97.7%
11,COC(=O)C1=C(C)N(Cc2ccccc2)C(=NCC(C)C)N[C@H]1c1ccccc1,inconclusive: -42.1%
12,O=C(COC(=O)Cc1c(Cl)cccc1Cl)Nc1ccc(OC(F)(F)F)cc1,inconclusive: -41.2%
13,CC1=C(C(=O)Nc2ccc([N+](=O)[O-])cc2)C(c2cccc(C(F)(F)F)c2)NC(=S)N1c1ccccc1 (stereo not given),inconclusive: -45.8%
14,Cc1cc(C)cc(NC(=O)C2CCN(S(=O)(=O)c3ccc4c(c3)NC(=O)C(C)S4)CC2)c1 (stereo not given),inconclusive: -39.8%
15,O=C(O)CN1C(=O)/C(=C\C(Br)=C\c2ccccc2)SC1=S,inconclusive: -44.7%
16,Oc1ccc(-c2nc3ccccc3nc2-c2ccccc2)cc1,active: -64.7%
17,CC(=O)c1sc(-c2ccc(F)cc2)cc1NS(=O)(=O)c1ccc(C)cc1,inactive: 16.6%
18,Oc1ccc(-c2csc(Nc3ncccn3)n2)cc1O,inconclusive: -42.9%
19,COCCNc1nc(Oc2ccc(NC(C)=O)cc2)c2sc(-c3ccccc3)cc2n1,inconclusive: -35.3%
20,Cc1ccccc1Nc1c(-c2cccnc2)nc2ccc(Br)cn12,inconclusive: -34.8%
21,CC1CCCCN1CCNC(=O)c1cc2c(=O)n(C)c3ccccc3c2n1C (stereo not given),active: -55%
22,CCCCn1c(N)c(N(CCOC)C(=O)c2ccco2)c(=O)[nH]c1=O,inactive: 5.36%

row,Structure (SMILES),activity change
1,COc1ccnc(CSC(N)=Nc2cccc(C(F)(F)F)c2)c1,active: -104%
2,O=C(N/N=C/c1ccc[nH]1)c1ccc(O)cc1,inactive: 6.94%
3,Cc1ccc(NC(=O)CN(C)C(=O)c2cc3c(s2)CCCCC3)cc1,inactive: 0%
4,Nc1ccccc1Oc1c(F)c(F)c(Oc2ccccc2N)c(F)c1F,inconclusive: -48.7%
5,COc1ccccc1C(=O)Nc1c(C(=O)N(CCN(C)C)Cc2ccco2)oc2ccccc12,inconclusive: -44.4%
6,O=C(NCCn1cc(SCc2ccc(F)cc2)c2ccccc21)c1c(F)cccc1F,active: -60.9%
7,CCOC(=O)C(C)Oc1ccc(C2NC(=O)NC(C)=C2C(C)=O)cc1Br (stereo not given),inconclusive: -31%
8,CC1CCN(C2=NC(=O)/C(=C/c3cccc(O)c3)S2)CC1,active: -75.2%
9,CC(C)N1CCc2c(sc(NC(=O)Cc3ccccc3)c2C(N)=O)C1,inconclusive: -43.4%
10,CC(C)C[C@@H](CSc1ccc(Br)cc1)N1CCN(CC(C)C)CCC1=O,inconclusive: -46.7%
11,O=c1c2ccccc2nc(SCc2ccccc2)n1Cc1ccco1,inactive: -5.48%
12,COc1ccc(/C=C/C(=O)C23CC4CC(CC(C4)C2)C3)cc1CN1CCOCC1,active: -189%
13,Cc1cc(C)n(-c2nc(NCc3cccnc3)c3c4c(sc3n2)COC(C)(C)C4)n1,inconclusive: -40.7%
14,CCN(CC)S(=O)(=O)c1cccc(C(=O)N[C@H](C(=O)OCC(=O)Nc2ccccc2)C(C)C)c1,inconclusive: -34.6%
15,O=C(NCc1ccccn1)c1ccc(Cl)c(S(=O)(=O)N2CCOCC2)c1,inactive: -0.785%
16,O=C(c1ccc(Cl)cc1)C1CCCN(Cc2ccc(Oc3ncccn3)cc2)C1 (stereo not given),inactive: -2.89%
17,COc1ccc(/C=C2\OC(=O)c3c(OC)cccc32)cc1OC,inconclusive: -45.6%
18,COc1ccc(Br)cc1C(=O)Nc1ccccc1N1CCN(C(=O)c2ccccc2)CC1,active: -63%
19,Cc1cc([N+](=O)[O-])nn1CCCC(=O)N1CCN(c2ccc(F)cc2)CC1,inconclusive: -30.4%
20,CN(CCS(=O)(=O)c1ccc(Cl)cc1)Cc1cccnc1,inconclusive: -48.8%
21,O=C(Nc1cccc(C(F)(F)F)c1)c1cc(S(=O)(=O)N2CCCCC2)ccc1N1CCOCC1,inconclusive: -31.3%
22,CNC(=O)/C(=C\c1ccc2c(c1)OCO2)NC(=O)c1ccc(Br)cc1,inactive: -6.97%

row,Structure (SMILES),activity change
1,C#CCOCCOCCOCCNc1nc(N2CCN(C(=O)CCCCCCCCCCNC(=O)[C@H](CCCCN)n3cc(C)nn3)CC2)nc(N2CCN(C(=O)CCCCCCCCCCNC(=O)[C@H](CCCN=C(N)N)n3cc(C[C@@H](C)CC)nn3)CC2)n1,active: -102%
2,CC(C)C[C@H](NC(=O)N1CCn2c1nc1ccccc12)C(=O)NC1CC1,inconclusive: -30.7%
3,O=C(/C=C/c1ccc(Br)o1)NC(c1ccccc1)c1ccccc1,inconclusive: -40.3%
4,COc1cc(OC)c2ccc(=O)oc2c1C(CC(=O)N1CCOCC1)c1ccc2c(c1)OCO2 (stereo not given),inactive: 2.31%
5,Cc1ccc(NC(=S)NCc2ccc3[nH]c4c(c3c2)CCCC4)cc1,inconclusive: -44.7%
6,O=C1CC(c2ccco2)CC2=C1C=Nc1ccccc1N2 (stereo not given),inactive: -18.7%
7,COc1ccc(-c2nc3c(Cl)cc(C(F)(F)F)cn3c2Cc2cccc(F)c2)cc1OC,inconclusive: -31.7%
8,CCCCCOc1ccc(C(=O)C(c2ccccc2)N2CCOCC2)cc1 (stereo not given),inconclusive: -43.7%
9,O=c1c2ccccc2sn1-c1cccc(Cl)c1,active: -102%
10,O=C(NCc1ccccc1)c1ccc(N2CCC3(CC2)CC(c2ccc(Cl)cc2)=NO3)c([N+](=O)[O-])c1,inconclusive: -38%
11,OCCOC1CCCc2oc(-c3ccccc3)c(C#CC3(O)CCCCC3)c21 (stereo not given),inconclusive: -45.4%
12,CCCCNC(=O)CSc1nnc(-c2cccc(S(=O)(=O)N3CCOCC3)c2)o1,inconclusive: -39.2%
13,COc1ccc(-c2oc3ccccc3c2C#Cc2cncn2C)cc1,inconclusive: -31%
14,COc1ccc(C(=O)COc2cccc(NC(=O)c3ccco3)c2)cc1,inactive: 1.85%
15,Nc1ccc(-c2nc3ccc([N+](=O)[O-])cc3[nH]2)cc1,active: -80%
16,COc1ccccc1C(=O)NCc1ccco1,inactive: -22.7%
17,O=C(Nc1cccc(Cl)c1)N(Cc1nc2ccccc2c(=O)[nH]1)Cc1cccs1,inconclusive: -40.5%
18,CC(C)c1csc(CN2CCC(CCC(=O)NCC3CCCO3)CC2)n1 (stereo not given),inactive: 5.61%
19,c1ccc(CNc2ncnc3ccccc23)cc1,inconclusive: -44.2%
20,CCn1cc(/C=C(\NC(=O)c2ccccc2F)C(=O)NCCCN2CCOCC2)c2ccccc21,inconclusive: -38.2%
21,CC(C)(C)NC(=O)CSC(=Nc1ccccc1F)NC#N,inconclusive: -35.6%
22,CN1CCN(NC(=O)C23CC4CC(CC(C4)C2)C3)CC1,inconclusive: -35.4%

row,Structure (SMILES),activity change
1,O=C1C(Cl)=C(Nc2ccccc2)C(=O)c2ccccc21,active: -107%
2,Nc1nc(Nc2ccccc2F)nc(NC2CCCCC2)c1[N+](=O)[O-],active: -71.1%
3,Cc1[nH]c2ccccc2c1/C=N/Nc1nc(Nc2ccccc2)nc(N2CCOCC2)n1,active: -79.9%
4,CCc1ccc(C(=O)NC(=S)NCc2cccnc2)cc1,inconclusive: -36.2%
5,CCOc1nc(OCC)nc(-n2cc(-c3ccccc3)nn2)n1,active: -60.1%
6,COC(=O)C1=CN(Cc2ccc(OC)c(OC)c2)C=C(C(=O)OC)C1c1cccc(O)c1,inconclusive: -35.6%
7,Cc1ccccc1C(=O)Nc1ccc2nc3n(c(=O)c2c1)CCCC3,inconclusive: -34.7%
8,CCN=c1scc(-c2cccs2)n1/N=C/c1cc(OC)ccc1O,active: -61.7%
9,Cc1ccc(NC(=O)CC2OC(=O)c3ccccc32)cc1S(=O)(=O)N1CCCCCC1 (stereo not given),inactive: 0%
10,CCn1c2ccccc2c2cc(/C=N/NC(=O)c3ccccc3)ccc21,inconclusive: -33%
11,Cn1c(=O)[nH]c(=O)c2c1nc(Br)n2CCCSc1nc2ccccc2o1,inactive: 32.5%
12,C#CCOCCOCCOCCNc1nc(N2CCN(C(=O)CCCCCCCCCCNC(=O)[C@H]([C@@H](C)CC)n3cc(CCCCN=C(N)N)nn3)CC2)nc(N2CCN(C(=O)CCCCCCCCCCNC(=O)[C@H](CCCCN)n3cc(C)nn3)CC2)n1,active: -112%
13,c1ccc(Nc2nc3ccccc3[nH]2)nc1,active: -80.5%
14,O=C(CCc1ccccc1)Nc1ccnn1C1CCN(C/C=C/c2ccccc2)CC1,inactive: -13.2%
15,Cc1nn(-c2ccccc2)c2c1P(=O)(O)/C(=C1\N(C)c3ccccc3C1(C)C)C=N2,inconclusive: -34.6%
16,Cc1cccc(OCC(=O)NC(=S)N2CCCc3ccccc32)c1,inconclusive: -32.6%
17,CCC(=O)N(Cc1cc2cc(OC)ccc2[nH]c1=O)c1ccccc1OC,inconclusive: -30.9%
18,O=c1[nH]c2ccccc2c(O)c1O,active: -92.1%
19,CCOC(=O)c1sc(NC(=O)CSc2nnc(-c3ccco3)n2CC)c(C(=O)OCC)c1C,inconclusive: -37.5%
